The supplement of paper PMC8007513
Structures can show the parent of a compound that is named as a salt. ± gives the standard error. The whole screen tested about 1,300 compounds, of which about 130 (10%) showed an effect of 50% or more. Only a part is listed here, and it is no random draw.

System: Trichoderma virens ATCC 9645
Assay: growth yield (OD600) with compound + IPBC relative to untreated control; higher = less growth inhibition
Conditions: compound concentration: 100 uM, IPBC concentration: 200 ng/ml
Summary of the method: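 Growth appears as means of duplicate screens, relative to the control containing neither agent. To obtain it, OD600 was read on a BioTek EL800 at 40 h and 72 h. The cultures were 100 μl aliquots in 96-well plates at 30 °C, holding Trichoderma virens ATCC 9645 spores at 15,000 spores ml^−1 in potato dextrose broth, library compounds at 100 μM final, and, in some wells, a biocide at 200 ng ml^−1.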

SMILES	growth yield (40 h) [%]	growth yield (72 h) [%]
CCC1(CC)C(=O)C=CNC1=O [Pyrithyldione] + CCCCNC(=O)OCC#CI [3-iodo-2-propynyl butylcarbamate (IPBC)]	103 ± 15	101 ± 10
CC(COc1ccccc1)N(CCCl)Cc1ccccc1 (stereo not drawn) [Phenoxybenzamine hydrochloride] + CCCCNC(=O)OCC#CI [3-iodo-2-propynyl butylcarbamate (IPBC)]	101 ± 5.4	102 ± 2.4
COc1ccc(CN(CCN(C)C)c2ccccn2)cc1 [Pyrilamine maleate] + CCCCNC(=O)OCC#CI [3-iodo-2-propynyl butylcarbamate (IPBC)]	82.8 ± 4.6	92.4 ± 4.9
CCCNC(C)C(=O)Nc1ccccc1C (stereo not drawn) [Prilocaine hydrochloride] + CCCCNC(=O)OCC#CI [3-iodo-2-propynyl butylcarbamate (IPBC)]	86.4	95.54 ± 0.52
CC(=O)c1ccc(S(=O)(=O)NC(=O)NC2CCCCC2)cc1 [Acetohexamide] + CCCCNC(=O)OCC#CI [3-iodo-2-propynyl butylcarbamate (IPBC)]	86.2 ± 1.1	91.56 ± 0.52
CCOC(=O)OC(C)OC(=O)[C@@H]1N2C(=O)[C@@H](NC(=O)[C@H](N)c3ccccc3)[C@H]2SC1(C)C (stereo partly drawn) [Bacampicillin hydrochloride] + CCCCNC(=O)OCC#CI [3-iodo-2-propynyl butylcarbamate (IPBC)]	89.1 ± 7.5	92.3 ± 3.8
CCOC(=O)[C@H](CCc1ccccc1)N[C@H]1CCc2ccccc2N(CC(=O)O)C1=O [Benazepril hydrochloride] + CCCCNC(=O)OCC#CI [3-iodo-2-propynyl butylcarbamate (IPBC)]	84.98 ± 0.79	90.4 ± 1.3
COC1=C(OC)C(=O)C(CCCCCCCCCCO)=C(C)C1=O [Idebenone] + CCCCNC(=O)OCC#CI [3-iodo-2-propynyl butylcarbamate (IPBC)]	49.1 ± 8.1	
NCCCC[C@H](N[C@@H](CCc1ccccc1)C(=O)O)C(=O)N1CCC[C@H]1C(=O)O [Lisinopril] + CCCCNC(=O)OCC#CI [3-iodo-2-propynyl butylcarbamate (IPBC)]	91.7 ± 5.9	97.7 ± 4.4
CC(C)(C)NC[C@H](O)COc1nsnc1N1CCOCC1 [Timolol maleate salt] + CCCCNC(=O)OCC#CI [3-iodo-2-propynyl butylcarbamate (IPBC)]	88 ± 2.5	93.13 ± 0.63
O=C(Nc1cccc2c(=O)cc(-c3nnn[nH]3)oc12)c1ccc(OCCCCc2ccccc2)cc1 [Pranlukast] + CCCCNC(=O)OCC#CI [3-iodo-2-propynyl butylcarbamate (IPBC)]	95.6 ± 7.6	95.3 ± 5.1
O=C1CN2Cc3c(ccc(Cl)c3Cl)N=C2N1 [Anagrelide] + CCCCNC(=O)OCC#CI [3-iodo-2-propynyl butylcarbamate (IPBC)]	95.8 ± 5.6	93.5 ± 4.4
CC(C)NCC(O)COc1ccc(COCCOC(C)C)cc1 (stereo not drawn) [Bisoprolol fumarate] + CCCCNC(=O)OCC#CI [3-iodo-2-propynyl butylcarbamate (IPBC)]	91.81 ± 0.32	93.97 ± 0.84
Nc1nc(=S)c2ncn([C@@H]3O[C@H](CO)[C@@H](O)[C@H]3O)c2[nH]1 [Thioguanosine] + CCCCNC(=O)OCC#CI [3-iodo-2-propynyl butylcarbamate (IPBC)]	46.1 ± 0.64	88.3 ± 2.3
Fc1ccc(C(OCCN2CCN(CCCc3ccccc3)CC2)c2ccc(F)cc2)cc1 + CCCCNC(=O)OCC#CI [3-iodo-2-propynyl butylcarbamate (IPBC)]	13.3 ± 4.8	
CC(C)(C)NCC(O)c1cc(Cl)c(N)c(Cl)c1 (stereo not drawn) [Clenbuterol hydrochloride] + CCCCNC(=O)OCC#CI [3-iodo-2-propynyl butylcarbamate (IPBC)]	78.8 ± 0.95	89.7 ± 2.6
CC(=O)N[C@@H](CC(C)C)C(=O)O [N-Acetyl-L-leucine] + CCCCNC(=O)OCC#CI [3-iodo-2-propynyl butylcarbamate (IPBC)]	86.57 ± 0.16	93.8 ± 2.3
Nc1nc(F)nc2c1ncn2[C@@H]1O[C@H](CO)[C@@H](O)[C@@H]1O [Fludarabine] + CCCCNC(=O)OCC#CI [3-iodo-2-propynyl butylcarbamate (IPBC)]	85.3 ± 2.4	86.6 ± 1.1
Clc1ccc(C(Cn2ccnc2)OCc2c(Cl)cccc2Cl)c(Cl)c1 (stereo not drawn) [Isoconazole] + CCCCNC(=O)OCC#CI [3-iodo-2-propynyl butylcarbamate (IPBC)]	4.13 ± 0.64	2.83 ± 0.32
NC(=O)N1c2ccccc2C=Cc2ccccc21 [Carbamazepine] + CCCCNC(=O)OCC#CI [3-iodo-2-propynyl butylcarbamate (IPBC)]	92.8 ± 1.9	93.8 ± 1.1
CN(C)CCN(Cc1cccs1)c1ccccn1 [Methapyrilene hydrochloride] + CCCCNC(=O)OCC#CI [3-iodo-2-propynyl butylcarbamate (IPBC)]	91.2 ± 12	97 ± 6.6

SMILES	growth yield (40 h) [%]	growth yield (72 h) [%]
COc1c(O[C@@H]2O[C@H](CO)[C@@H](O)[C@H](O)[C@H]2O)cc2c(c1OC)-c1ccc(SC)c(=O)cc1[C@@H](NC(C)=O)CC2 [Thiocolchicoside] + CCCCNC(=O)OCC#CI [3-iodo-2-propynyl butylcarbamate (IPBC)]	84.5 ± 1.3	90 ± 1.1
O=C(Cn1ccnc1[N+](=O)[O-])NCCO [Etanidazole] + CCCCNC(=O)OCC#CI [3-iodo-2-propynyl butylcarbamate (IPBC)]	91.3 ± 3.3	92.2 ± 3.9
CCN(CC)CCNC(=O)c1cc(S(C)(=O)=O)ccc1OC [Tiapride hydrochloride] + CCCCNC(=O)OCC#CI [3-iodo-2-propynyl butylcarbamate (IPBC)]	82.12 ± 0.48	92.61 ± 0.52
O=C(CCCN1CC=C(n2c(=O)[nH]c3ccccc32)CC1)c1ccc(F)cc1 [Droperidol] + CCCCNC(=O)OCC#CI [3-iodo-2-propynyl butylcarbamate (IPBC)]	76.72 ± 0.16	90.72 ± 0.73
C#CCN(C)Cc1ccccc1 [Pargyline hydrochloride] + CCCCNC(=O)OCC#CI [3-iodo-2-propynyl butylcarbamate (IPBC)]	89.3 ± 4.5	95.5 ± 2.4
COc1ccc2cc(CCC(C)=O)ccc2c1 [Nabumetone] + CCCCNC(=O)OCC#CI [3-iodo-2-propynyl butylcarbamate (IPBC)]	39.7 ± 1.6	
CCn1cc(C(=O)O)c(=O)c2ccc(C)nc21 [Nalidixic acid sodium salt] + CCCCNC(=O)OCC#CI [3-iodo-2-propynyl butylcarbamate (IPBC)]	49.2 ± 1.6	
Cc1ccc(S(=O)(=O)NC(=O)NN2CC3CCCC3C2)cc1 (stereo not drawn) [Gliclazide] + CCCCNC(=O)OCC#CI [3-iodo-2-propynyl butylcarbamate (IPBC)]	92.6 ± 4.6	96.7 ± 3.4
CCCCS(=O)(=O)N[C@@H](Cc1ccc(OCCCCC2CCNCC2)cc1)C(=O)O [Tirofiban hydrochloride] + CCCCNC(=O)OCC#CI [3-iodo-2-propynyl butylcarbamate (IPBC)]	85.5 ± 1.9	91.3 ± 0.94
COc1nc(C)nc(Cl)c1NC1=NCCN1 [Moxonidine] + CCCCNC(=O)OCC#CI [3-iodo-2-propynyl butylcarbamate (IPBC)]	96.7 ± 5.9	99.6 ± 4
Cc1ccc(C(=O)c2cc(O)c(O)c([N+](=O)[O-])c2)cc1 [Tolcapone] + CCCCNC(=O)OCC#CI [3-iodo-2-propynyl butylcarbamate (IPBC)]	47.5 ± 3.3	56 ± 2.7
COc1ccc(C(=O)NCc2cccnc2)cc1C(=O)NCc1cccnc1 [Picotamide monohydrate] + CCCCNC(=O)OCC#CI [3-iodo-2-propynyl butylcarbamate (IPBC)]	91.2 ± 5.1	97 ± 3.9
O=C(NCCNCC(O)COc1ccc(O)cc1)N1CCOCC1 (stereo not drawn) [Xamoterol hemifumarate] + CCCCNC(=O)OCC#CI [3-iodo-2-propynyl butylcarbamate (IPBC)]	92.4 ± 1.6	94.39 ± 0.63
COc1ccc(CCN2CCC(Nc3nc4ccccc4n3Cc3ccc(F)cc3)CC2)cc1 [Astemizole] + CCCCNC(=O)OCC#CI [3-iodo-2-propynyl butylcarbamate (IPBC)]	5.08	4.3 ± 0.32
CCN(Cc1ccncc1)C(=O)C(CO)c1ccccc1 (stereo not drawn) [Tropicamide] + CCCCNC(=O)OCC#CI [3-iodo-2-propynyl butylcarbamate (IPBC)]	84.8 ± 0.95	93.97 ± 0.84
CN(C)CCOC1=Cc2ccccc2Sc2ccc(Cl)cc21 [Zotepine] + CCCCNC(=O)OCC#CI [3-iodo-2-propynyl butylcarbamate (IPBC)]	38.6 ± 0.16	97.7
CCN(CC)CC#CCOC(=O)C(O)(c1ccccc1)C1CCCCC1 (stereo not drawn) [Oxybutynin chloride] + CCCCNC(=O)OCC#CI [3-iodo-2-propynyl butylcarbamate (IPBC)]	74.18 ± 0.16	88.52 ± 0.63
Cc1ncc([N+](=O)[O-])n1CCO [Metronidazole] + CCCCNC(=O)OCC#CI [3-iodo-2-propynyl butylcarbamate (IPBC)]	112 ± 4.5	109 ± 4.9
OC(CCN1CCCCC1)(c1ccccc1)C1CC2C=CC1C2 (stereo not drawn) [Biperiden hydrochloride] + CCCCNC(=O)OCC#CI [3-iodo-2-propynyl butylcarbamate (IPBC)]	89.9 ± 7.3	95 ± 4
CN1C2CCCC1CC(NC(=O)c1nn(C)c3ccccc13)C2 (stereo not drawn) [Granisetron] + CCCCNC(=O)OCC#CI [3-iodo-2-propynyl butylcarbamate (IPBC)]	80.1 ± 4.1	86.2 ± 2.3
